Experimental data reported in PubChem BioAssay AID485294 (National Center for Advancing Translational Sciences (NCATS), 2010).
The campaign covered roughly 370,000 compounds. About 150 (0.041%) were called active. Inconclusive means that the source gave no clear call. Such entries were picked first, then a sample of the others. Calls come from the whole dose curve; as a rule, active = well fitted inhibition curve with a large enough effect; inconclusive = small, poorly fitted or top-dose-only effect; inactive = flat fitted curve, though single readings scatter. Potencies of inconclusive entries are left out as doubtful fits.

What follows are compounds tested against Beta-lactamase (Escherichia coli (strain K12)) (UniProt P00811) (assay: qHTS Inhibitors of AmpC Beta-Lactamase (assay with detergent)). Settings: AmpC hydrolysis of nitrocefin, absorbance 480 nm, 0.01% Triton; activity change, negative = inhibition: at 114 µM (top of the series).
Outline: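 20 mM phosphate pH 7.0 + 0.01% (detergent screen) or 0.0001% Triton X-100; 5.3 nM AmpC reagent; cpd preinc 15 min RT; nitrocefin (800 uM stock) to start; A480 q20 s × 4 min; Activity was normalised to no-enzyme and no-compound control wells.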
Note: nearly all actives have a fitted effect of over 25% in size.
Potency is the fitted concentration of half-maximal effect; tags give direction and shape of the fitted curve.
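Throughout, for activity change, negative = inhibition: 0% = no-compound wells and -100% = no-enzyme wells.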

Chain of UniProt P00811 (P00811 whole entry, looked up): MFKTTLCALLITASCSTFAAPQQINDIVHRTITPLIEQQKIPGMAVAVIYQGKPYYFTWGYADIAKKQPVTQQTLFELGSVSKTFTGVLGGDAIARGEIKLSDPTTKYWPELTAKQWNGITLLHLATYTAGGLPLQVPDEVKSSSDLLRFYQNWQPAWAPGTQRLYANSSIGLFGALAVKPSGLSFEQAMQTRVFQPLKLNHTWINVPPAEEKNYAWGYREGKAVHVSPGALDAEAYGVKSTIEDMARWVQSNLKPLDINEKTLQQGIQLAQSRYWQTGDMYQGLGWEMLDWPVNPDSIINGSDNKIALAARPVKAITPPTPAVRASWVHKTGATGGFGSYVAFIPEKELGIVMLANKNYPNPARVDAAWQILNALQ

| SMILES | Potency | activity change, negative = inhibition |
| --- | --- | --- |
| CCn1c(C2CC(=O)N(c3ccc(C)c(C)c3)C2)nc2ccccc21 (stereo unspecified) | inconclusive [inhibitor, full curve, poor fit] | – |
| CCc1ccc(Nc2n[n+](-c3ccccc3)c(-c3cccc(C)c3)s2)cc1 | inconclusive [inhibitor, single point] | – |
| COc1ccc(-c2nnc(SCC(=O)Nc3sc4c(c3C#N)CCCC4)n2-c2ccccc2)cc1 | inconclusive [inhibitor, full curve, poor fit] | – |
| CC(NC(=O)CCC(=O)NC(C)C1COc2ccccc2O1)C1COc2ccccc2O1 (stereo unspecified) | – | inactive: 0.287% |
| CCOC(=O)CCc1c(C)nc2cc(-c3ccc(F)cc3)[nH]n2c1=O | inconclusive [inhibitor, single point] | – |
| CCNC(=O)NC1(C(=O)Nc2ccc3c(c2)OCCO3)CCCCC1 | inconclusive [inhibitor, single point] | – |
| CC(C)c1ccc(CN2CCC(Oc3ccc(C(=O)N4CCCC4)cc3)CC2)cc1 | – | inactive: -2.69% |
| Cc1cc(C)cc(NC(=O)COc2ccc(C(=S)N3CCOCC3)cc2)c1 | inconclusive [inhibitor, full curve] | – |
| COc1ccc(NC(=O)CSc2nc(O)cc(=O)n2-c2ccccc2OC)cc1 | inconclusive [inhibitor, full curve] | – |
| O=C(O)CCCNC(=O)c1cccc(C(=O)NCCCC(=O)O)n1 | inconclusive [inhibitor, full curve] | – |
| CC(C)(C)c1cnnn1-c1ccc(C(=O)CCl)cc1 | inconclusive [inhibitor, single point] | – |
| COc1ccc(NC(=O)CSc2cn[nH]n2)cc1OC | – | inactive: 1.47% |
| S=C(NCc1ccco1)Nc1ccccc1Cl | – | inactive: 5.59% |
| O=C(NNC(=O)c1cccs1)c1ccco1 | inconclusive [inhibitor, single point] | – |
| O=C(O)c1cccc(NC(=O)c2cccc(NC(=O)C3CCCO3)c2)c1 (stereo unspecified) | inconclusive [inhibitor, full curve, poor fit] | – |
| COCCCNC(=S)N1CCN(c2nc(C)nc3sc4c(c23)CCCC4)CC1 | – | inactive: -7.67% |
| CN1CCN(NC(=O)c2ccc(F)cc2)CC1 | inconclusive [inhibitor, partial curve, poor fit] | – |
| CSc1ccc(NC(=O)Nc2cc(C)ccn2)cc1 | inconclusive [inhibitor, full curve, poor fit] | – |
| C/C(=C\C(=S)Nc1ccccc1)Nc1cccc2ccccc12 | – | inactive: -1.24% |
| CCCCn1cnc2cc(NC(=O)c3cc(OC)c(OC)c(OC)c3)ccc21 | – | inactive: 20.8% |
| COc1ccc(CCNc2nc(=O)[nH]nc2C)cc1OC | inconclusive [inhibitor, partial curve] | – |
| Cc1cc(N2CCC(C)CC2)nc2cccc(O)c12 | inconclusive [inhibitor, full curve, poor fit] | – |
| COc1ccc(CC(=O)N2CC3(C)CC2CC(C)(C)C3)cc1 (stereo unspecified) | inconclusive [inhibitor, full curve, poor fit] | – |
| CN(C1CCCCC1)S(=O)(=O)c1ccc(NC(=S)NC(=O)c2cccs2)cc1 | inconclusive [inhibitor, full curve, poor fit] | – |

| SMILES | Potency | activity change, negative = inhibition |
| --- | --- | --- |
| CC1(C)Oc2ccc3ccc(=O)oc3c2/C(=C/Nc2ccc(O)cc2)C1=O | – | inactive: 12.8% |
| CN1CCN(CCCNC(=O)c2ccc3c(=O)n(CCc4ccccc4)c(=O)[nH]c3c2)CC1 | inconclusive [inhibitor, full curve] | – |
| CN1CCN(C(=O)COCc2cc(-c3ccc4c(c3)OCO4)on2)CC1 | – | inactive: -4.07% |
| Cn1c(NCc2cccnc2)nc2c1c(=O)n(Cc1ccccc1F)c(=O)n2C | inconclusive [inhibitor, partial curve, poor fit] | – |
| COc1ccccc1NC(=O)c1ccc(-c2ccc(Br)cc2)o1 | inconclusive [inhibitor, single point] | – |
| CCCCNc1c(-c2ccc(OC)c(SC3CCCCC3)c2)nc2cnccn12 | inconclusive [inhibitor, single point] | – |
| Cc1ccn2cc(CNC(=O)c3cccs3)nc2c1 | inconclusive [inhibitor, partial curve] | – |
| COCCC(=O)N1CCC(Oc2ccc(C(=O)NCCc3ccccn3)cc2)CC1 | inconclusive [inhibitor, full curve, poor fit] | – |
| COc1ccc(CC/C(=N\O)C2(O)CCCCC2)cc1 | inconclusive [inhibitor, full curve, poor fit] | – |
| CCc1c(C)nc2cc(-c3cc(OC)cc(OC)c3)nn2c1N1CCN(CCN2CCOCC2)CC1 | – | inactive: -2.23% |
| COc1ccc(C2SCC(=O)Nc3c2c(C)nn3-c2ccccc2)cc1 (stereo unspecified) | inconclusive [inhibitor, partial curve] | – |
| COc1ccc(-c2cn(-c3ccc(C)cc3C)c(=O)[nH]2)cc1OC | inconclusive [inhibitor, full curve] | – |
| CSC1=C(C#N)C(c2ccccc2Cl)C2=C(N1)c1ccccc1C2=O (stereo unspecified) | inconclusive [inhibitor, full curve, poor fit] | – |
| CCOC(=O)C1(C(C)(C)CC)CC(CSc2nc3ccccc3[nH]2)OC1=O (stereo unspecified) | – | inactive: -14.3% |
| Cn1nc(C(=O)Nc2ccc(S(=O)(=O)N3CCCC3)cc2)ccc1=O | inconclusive [inhibitor, full curve, poor fit] | – |
| Cc1ccc(-n2ncc3c(Nc4ccc5c(c4)OCCO5)ncnc32)cc1C | – | inactive: 6.55% |
| Cc1ccc(C(O)CN2C3=NCCN3c3ccccc32)cc1 (stereo unspecified) | inconclusive [inhibitor, full curve, poor fit] | – |
| COc1ccc(OC)c(Nc2cc(C(=O)NCc3ccccc3)c3ccccc3n2)c1 | inconclusive [inhibitor, full curve, poor fit] | – |
| O=C(Nc1ccc(Cn2cccn2)cc1)c1ccc(COc2cccc(Br)c2)cc1 | inconclusive [inhibitor, single point] | – |
| S=c1nc(-c2ccccc2)[nH]n1-c1ccccc1 | – | inactive: -1.2% |
| Cc1cc(C)cc(N(CC(=O)NCc2ccc3c(c2)OCO3)C(=O)CCC(=O)Nc2ccccn2)c1 | – | inactive: -2.42% |
| CCN(CC)c1ccc2c(c1)OC(N)=C(C#N)C2c1cccnc1 (stereo unspecified) | – | inactive: -11.8% |
| Cc1ccsc1/C=C/c1ccc2ccccc2n1 | – | inactive: -0.463% |
| Cc1ncc(CO)c(/C=N/NC(=S)Nc2ccc(F)cc2)c1O | inconclusive [inhibitor, full curve, poor fit] | – |

| SMILES | Potency | activity change, negative = inhibition |
| --- | --- | --- |
| COCCCNC(=O)Cn1cc(C(=O)c2cccs2)c2ccccc21 | inconclusive [inhibitor, full curve] | – |
| NC(=O)c1ccccc1OCc1nnc(-c2ccccc2Br)o1 | – | inactive: -7.1% |
| CCN(CC)CCNc1ncnc2c1sc1nc(N3CCOCC3)c3c(c12)CCCC3 | – | inactive: 0.115% |
| Cc1ccc(C(=O)N2CCN(C)CC2)cc1[N+](=O)[O-] | inconclusive [inhibitor, full curve, poor fit] | – |
| Cc1ccc(Cn2ncn(-c3ccccc3)c2=O)cc1 | – | inactive: -1.56% |
| CC(/C=N/Nc1nncc(=O)[nH]1)=C\c1ccccc1 | – | inactive: -16.6% |
| COC(=O)CN1C(=O)C(O)(CC(=O)c2ccc(Br)cc2)c2ccccc21 (stereo unspecified) | inconclusive [inhibitor, partial curve] | – |
| COCCn1c(SCC(=O)c2cccc(OC)c2)nnc1-c1ccco1 | inconclusive [inhibitor, partial curve, poor fit] | – |
| Cn1c(NCc2ccccc2F)nc2ccccc21 | – | inactive: 6.26% |
| Cc1csc(=O)n1CCC(=O)OCC(=O)NNC(=O)c1ccc(Cl)cc1 | – | inactive: -5.27% |
| Cc1cccc(N2C(=O)NC(=O)/C(=C\c3cnc(-c4ccccc4)nc3)C2=O)c1 | inconclusive [inhibitor, partial curve, poor fit] | – |
| C/C=C/c1ccc(Oc2nnnn2-c2ccc(C(N)=O)cc2)c(OC)c1 | inconclusive [inhibitor, full curve, poor fit] | – |
| CCOC(=O)c1c(NC(C)=O)sc2c(OC)cccc12 | inconclusive [inhibitor, full curve, poor fit] | – |
| CCOC(=O)Cn1c(N2CCCCCC2)nc2c1c(=O)[nH]c(=O)n2C | inconclusive [inhibitor, full curve, poor fit] | – |
| COCCN(C(=O)Nc1ccc(OC)cc1OC)C1CCN(C(C)C)CC1 | inconclusive [inhibitor, partial curve, poor fit] | – |
| CC(=O)c1cccc(OCC(O)CNCC2COc3ccccc3O2)c1 (stereo unspecified) | – | inactive: -2.69% |
| CCOc1ccc(S(=O)(=O)N2CCN(C(=O)CCC(=O)N3CCOCC3)CC2)cc1 | inconclusive [inhibitor, full curve] | – |
| Cc1ccc(NC(=O)CN2C(=O)NC(C)(C3CC3)C2=O)cc1S(=O)(=O)N1CCCCC1 (stereo unspecified) | inconclusive [inhibitor, full curve, poor fit] | – |
| CCN(C(=O)c1cc(S(=O)(=O)N2CCCCC2)c[nH]1)c1ccc(OC)cc1 | inactive | – |
| Cc1ccc(C(=O)/C=C/N(C)C)cn1 | inconclusive [inhibitor, single point] | – |
| COCCn1c(=O)[nH]c2cc(C(=O)OC)ccc2c1=O | inconclusive [inhibitor, full curve, poor fit] | – |
| C/C(CC(=O)NC1CCCCC1)=N\NC(=O)c1ccc(Br)cc1 | – | inactive: -0.0592% |
| CN1CCS/C1=C\C=C1/SC(=S)N(CC(=O)O)C1=O | – | inactive: -16.7% |
